In the supplement of paper PMC3334620:
Over roughly 33,000 sequences, “E-score (-0.5 to 0.5)” has its median near -0.035; the highest 2% begin near 0.35. Some of the results follow.

molecular target: T1, Pdr3 (UniProt P33200); assay: PBM E-score (8-mer binding enrichment) (E-score (-0.5 to 0.5)); higher = stronger / more preferred TF binding; most listed sequences are background and not binding sites; settings: protein concentration: 200 nM; construct: GST-full length
T1 sequence: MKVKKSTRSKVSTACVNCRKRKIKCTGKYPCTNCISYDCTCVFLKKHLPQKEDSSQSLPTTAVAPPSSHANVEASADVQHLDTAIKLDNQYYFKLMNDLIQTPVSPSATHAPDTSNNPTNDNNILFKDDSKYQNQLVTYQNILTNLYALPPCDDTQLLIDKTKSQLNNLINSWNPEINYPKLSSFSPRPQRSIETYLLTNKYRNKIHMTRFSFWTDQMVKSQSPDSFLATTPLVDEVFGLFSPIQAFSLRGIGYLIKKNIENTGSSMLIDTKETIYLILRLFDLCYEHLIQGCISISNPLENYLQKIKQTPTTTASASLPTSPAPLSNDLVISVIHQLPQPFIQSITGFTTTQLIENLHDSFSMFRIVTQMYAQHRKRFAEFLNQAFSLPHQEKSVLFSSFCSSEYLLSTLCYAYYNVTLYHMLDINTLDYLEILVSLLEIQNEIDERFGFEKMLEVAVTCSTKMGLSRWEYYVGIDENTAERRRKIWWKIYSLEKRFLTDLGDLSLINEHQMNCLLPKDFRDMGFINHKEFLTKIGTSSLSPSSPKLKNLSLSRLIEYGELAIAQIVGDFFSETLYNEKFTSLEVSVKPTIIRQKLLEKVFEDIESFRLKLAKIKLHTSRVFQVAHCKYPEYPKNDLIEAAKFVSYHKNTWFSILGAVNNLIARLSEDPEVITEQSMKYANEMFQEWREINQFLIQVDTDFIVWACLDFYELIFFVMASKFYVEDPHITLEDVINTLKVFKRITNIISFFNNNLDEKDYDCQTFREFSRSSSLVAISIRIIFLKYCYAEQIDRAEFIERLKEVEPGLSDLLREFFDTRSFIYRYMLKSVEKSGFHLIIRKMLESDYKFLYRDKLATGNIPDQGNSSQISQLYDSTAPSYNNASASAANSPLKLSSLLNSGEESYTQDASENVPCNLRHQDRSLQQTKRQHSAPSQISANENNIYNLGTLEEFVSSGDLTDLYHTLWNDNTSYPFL
Method in brief: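 GST-tagged yeast TFs (full-length or DNA-binding domain) were made by PURExpress in vitro transcription/translation and applied at about 100-200 nM to universal all-10-mer Agilent arrays. The arrays were made double-stranded by primer extension, on fresh or once-stripped slides. Bound protein was detected with fluorescent anti-GST, and scans were normalised with masliner. Each ungapped eight-base word, pooled with its reverse complement, received an E-score (modified Wilcoxon-Mann-Whitney statistic) from the Universal PBM Analysis Suite.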

Sequence | PBM E-score
AATTGTCC | 0.0741
ACAGTACA | -0.00617
ACACAAAG | -0.173
CAAGTATG | -0.165
TCGAGCGA | 0.184
CCGCACAC | 0.00515
CAAATCAA | -0.0555
AGCCTCCC | -0.0862
ATACACTA | -0.082
ATGTGGCG | 0.0952
GCCCTCGC | -0.0501
GTGTATAA | -0.315
CCCGGGCC | 0.397
CCGACTGA | 0.0283
CACACTCA | 0.0355
AATAGGGT | -0.108
CCGACGCC | 0.224
CAAGGACG | -0.11
ACCTAACA | 0.0831
GCTGCACA | -0.195
ACTTGAGG | -0.168
GAAACGAC | -0.0196

Sequence | PBM E-score
AAAAAAAC | -0.109
ACCCCGTA | 0.006
CCTTTTTC | 0.0815
GTAGTTTA | -0.0103
GAATAGCA | 0.0671
AGACAGTG | -0.117
AGACTTTA | -0.227
GAAATCTA | 0.0572
AGCACAGA | -0.0342
ATGTCTGG | 0.0897
AGAATTCT | 0.0674
CCTGTCGC | -0.0933
AGGGAATG | -0.0936
GTGACAGA | -0.117
ACTGAACG | -0.0935
AACAGTAC | -0.107
CTTGAGGC | -0.11
ATTGTACA | -0.16
TTATGCAA | -0.179
AAGTACGC | -0.238
ACGCTGGC | -0.0917
GACTGTGC | -0.211

Sequence | PBM E-score
CCCCTGCG | -0.0867
CCGACCCA | 0.221
CGCCGGCA | 0.339
CAAAGGCC | -0.0787
ACGGGCCA | 0.117
AAATCTTC | 0.0515
GAATTCCA | 0.142
ACCTGCCT | -0.184
ATACGGAA | 0.439
CTAGATAG | -0.17
CCGATCGA | 0.0662
AGTCACGC | -0.0659
TCCCAGGA | -0.222
GATAGAAA | -0.133
TGGCCCCA | -0.151
ACTTGGGC | -0.0423
CCTAAGAG | -0.171
AGAGAACC | -0.0968
ATTCCCGG | 0.393
AGGTAGAG | -0.253
CGGCAGTA | 0.143
ACAGCGAC | -0.245

Sequence | PBM E-score
AAGCTTGC | -0.154
GGACGCTA | -0.104
CCGTAGAA | -0.0248
ACCGCGAC | 0.082
GGCCCATA | -0.00801
TTAAGAAA | -0.126
AAAAATAA | -0.0349
CACGTGGG | -0.147
AGAAAATA | 0.0181
CCCGGTCC | 0.194
GCTCAAGC | -0.213
AAGCCCTA | -0.27
CTTAACAC | -0.0828
CCCTGCAA | -0.127
ACGGGAGT | 0.209
CACCTCGC | 0.0461
AGTTATTG | -0.07
CAAGCGTA | -0.34
GTTATCGA | 0.146
ACTTAAAA | -0.127
